# Experimental data published in PMC4336329 (PLoS ONE, 2015).
# In all, about 310,000 compounds went through this assay and about 2,200 (0.71%) showed an effect of 50% or more. The effect is printed as a negative number. Some of the results follow.
# Target: human ether-à-go-go-related gene (hERG) potassium channel (human, UniProt Q12809)
# Assay: primary screen, population patch clamp on CHO cells stably expressing hERG
# Sequence of human ether-à-go-go-related gene (hERG) potassium channel (Q12809 whole entry, looked up): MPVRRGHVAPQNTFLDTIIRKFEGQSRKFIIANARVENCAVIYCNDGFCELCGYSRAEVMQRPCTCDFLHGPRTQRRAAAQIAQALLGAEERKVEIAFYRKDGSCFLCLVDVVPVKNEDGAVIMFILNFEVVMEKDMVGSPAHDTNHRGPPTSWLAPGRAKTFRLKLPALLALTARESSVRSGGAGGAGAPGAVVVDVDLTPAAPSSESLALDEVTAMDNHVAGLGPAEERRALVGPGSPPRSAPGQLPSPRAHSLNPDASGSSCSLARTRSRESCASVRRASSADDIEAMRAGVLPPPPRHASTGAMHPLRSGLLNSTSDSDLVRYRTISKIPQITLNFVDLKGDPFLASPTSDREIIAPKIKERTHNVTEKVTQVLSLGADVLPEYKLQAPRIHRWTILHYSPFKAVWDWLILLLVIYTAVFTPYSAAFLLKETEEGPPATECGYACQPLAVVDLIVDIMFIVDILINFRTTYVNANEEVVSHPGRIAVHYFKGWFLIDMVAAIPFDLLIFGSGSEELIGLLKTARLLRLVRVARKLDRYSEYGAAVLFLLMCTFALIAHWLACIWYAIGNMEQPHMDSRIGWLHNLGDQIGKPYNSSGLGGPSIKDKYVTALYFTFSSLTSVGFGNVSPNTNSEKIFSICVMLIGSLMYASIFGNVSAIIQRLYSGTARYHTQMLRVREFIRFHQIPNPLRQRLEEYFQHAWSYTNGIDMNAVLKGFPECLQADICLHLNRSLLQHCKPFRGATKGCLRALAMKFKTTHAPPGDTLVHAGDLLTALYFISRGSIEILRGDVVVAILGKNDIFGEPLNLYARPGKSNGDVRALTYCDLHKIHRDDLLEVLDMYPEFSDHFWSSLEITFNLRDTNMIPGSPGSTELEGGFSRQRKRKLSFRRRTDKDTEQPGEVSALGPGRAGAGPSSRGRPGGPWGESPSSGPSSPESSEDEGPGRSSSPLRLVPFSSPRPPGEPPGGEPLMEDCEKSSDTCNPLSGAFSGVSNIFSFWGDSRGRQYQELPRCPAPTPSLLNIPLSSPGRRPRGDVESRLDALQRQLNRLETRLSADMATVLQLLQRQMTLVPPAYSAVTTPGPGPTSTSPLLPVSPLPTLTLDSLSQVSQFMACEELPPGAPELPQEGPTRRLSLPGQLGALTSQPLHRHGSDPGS
row,SMILES,"hERG current change (%, negative = inhibition) at 1uM"
1,CCCc1ccc2oc(C(=O)N(C)Cc3ccn[nH]3)c(C)c2c1,9.38%
2,CC(C(=O)Nc1ccc(S(=O)(=O)N2CCCC2)cc1)N(C)Cc1ccc(F)cc1 (stereo not shown),4.88%
3,COc1ccc(C2CC3(O)CC(C#N)(C(=O)N3)C2(C#N)C#N)cc1 (stereo not shown),18.9%
4,Cc1ccc(NC(=O)CSc2nc(O)cc(=O)n2-c2ccc(C)cc2)cc1,15.9%
5,CCc1cc(C(=O)Nc2nc(-c3ccccn3)cs2)sc1C,14.3%
6,CCOc1ccccc1N1CCN(C(=O)c2ccc3[nH]c(C)c(C)c3c2)CC1,11.6%
7,CCOc1ccc(NC(=O)CN(C)c2nnnn2-c2ccccc2)cc1OCC,5.31%
8,CCCn1nnc(NC(=S)NC(=O)C(C)(C)C)n1,4.47%
9,COc1ccc(C(=O)N/N=C/c2cn[nH]c2-c2ccc(OC)cc2OC)cc1,39.7%
10,CCOc1ccc(C2C(C(=O)O)CCC(=O)N2C2CCCCC2)cc1 (stereo not shown),3.64%
11,CCOC(=O)c1cnc(-n2nc(C)cc2C)nc1Oc1ccccc1F,7.62%
12,CC1CCN(C(C)C(=O)Nc2cc(S(=O)(=O)N3CCCCC3)ccc2Cl)CC1 (stereo not shown),5.41%
13,O=C(O)Cn1cc2c(n1)CCCCC2,7.91%
14,CCN(CC)S(=O)(=O)c1ccc(N2CCOCC2)c(NC(=O)C(C)(C)C)c1,6.58%
15,COCCn1c(SCC(=O)NC(C)c2ccc(F)cc2)nc2ccccc21 (stereo not shown),6.94%
16,CC1(C)CC2CC(C)(CN2S(=O)(=O)c2ccc(C(=O)Nc3ccc(S(=O)(=O)N4CCOCC4)cc3)cc2)C1 (stereo not shown),5.71%
17,O=c1c2ccccc2nc2c3ccccc3c(NCc3cccnc3)nn12,6.3%
18,CC(OC(=O)c1ccc2c(=O)n3c(nc2c1)CCC3)C(N)=O (stereo not shown),13.3%
19,Cc1c(C(=O)OCC(=O)NC(C)c2ccccc2)oc2ccccc12 (stereo not shown),0.498%
20,Cc1ccc(OC(=O)COc2ccccc2)c(-n2nc3ccccc3n2)c1,14.3%
21,Cc1cc2c(OCC(O)CN3CCCC3)cccc2[nH]1 (stereo not shown),13.8%
22,CCN(c1ccccc1)S(=O)(=O)c1cc2c(cc1C)N(C)CCO2,4.71%

row,SMILES,"hERG current change (%, negative = inhibition) at 1uM"
1,O=S(=O)(Cc1cccc(F)c1)c1c[nH]c2ccccc12,9.8%
2,Cc1ccc(SCC(=O)OCC(=O)NC2CCCCCC2)cc1,9.2%
3,Clc1cccc(N2CCN(c3ncnc4nc[nH]c34)CC2)c1,13.3%
4,CC(C)N(Cc1cn[nH]c1-c1ccc(-c2ccccc2)cc1)Cc1nccn1C,-4%
5,Cc1ccc(C(=O)Nc2cccc(-c3cnc4ccccc4n3)c2)cc1,11.5%
6,O=C(c1ccc2c(c1)OCO2)N1CCCC1,16.1%
7,COC(=O)[C@H]1C[C@@H]1[C@H](NC(=O)c1cc(C)on1)c1ccccc1,17%
8,COc1ccccc1NC(=O)N1CCN(C(=O)Nc2ccccc2OC)CC1,5.86%
9,C#CCOCCOCCOCCNc1nc(N2CCN(C(=O)Cn3cc(CCCC[NH3+])nn3)CC2)nc(N2CCN(C(=O)[C@H](CCCC[NH3+])n3cc(CCC(=O)O)nn3)CC2)n1.[Cl-],12.7%
10,O=C(COC(=O)c1ccccc1NCCO)NCc1cccs1,9.08%
11,COC(=O)c1cn(C(C)C(=O)NCc2ccco2)c2ccccc12 (stereo not shown),18.8%
12,Cc1cc(=O)c(C(=O)c2ccccc2)c(C)o1,18.2%
13,Cc1ccc(CN2CCN(Cc3cn[nH]c3-c3cccc(F)c3)CC2CCO)o1 (stereo not shown),-4.08%
14,CC1CCCCC1NC(=O)c1ccc(-n2cncn2)c([N+](=O)[O-])c1 (stereo not shown),-0.198%
15,COc1ccc(C2CC(c3ccccc3Cl)Nc3ncnn32)cc1OC (stereo not shown),-1.34%
16,Cc1ccnc(NC(=O)CCC(=O)N(CC(=O)NC2CCCCC2)c2ccc3c(c2)OCO3)c1,14.1%
17,COC(=O)C1CCCN1C(=O)COc1ccc(Br)cc1Cl (stereo not shown),13.8%
18,CCCC[n+]1c(C)sc2cc(OC)ccc21.[I-],13.3%
19,Cl.O=S(=O)(NCCN1CCOCC1)c1cccc(C(F)(F)F)c1,8.21%
20,O=C(NCc1ccc(F)cc1)c1cccs1,14.1%
21,C=CCNc1nc(C(=O)OCC(=O)c2cccc(Br)c2)cs1,-0.401%
22,CC(=NCc1cccnc1)c1c(O)n(Cc2ccccc2)c(=O)[nH]c1=O,-11.5%

row,SMILES,"hERG current change (%, negative = inhibition) at 1uM"
1,Cc1ccc(S[C@@H](CCN2CC[C@H](C)CCC2=O)c2ccccc2)cc1,4.14%
2,CCOC(=O)N1CCC(NC(=O)CSCc2nc(-c3ccccc3Cl)oc2C)CC1,-12.4%
3,COc1ccc(/C=N/N=C(/N)N[N+](=O)[O-])c(OC)c1,7.59%
4,COc1cc(OC)c(C(=O)NCC(c2cccs2)N(C)C)cc1OC (stereo not shown),6.43%
5,COc1ccc(S(=O)(=O)N(C)CC(=O)Nc2ccc3c(c2)OCCO3)cc1OC,10.7%
6,O=C(CSc1nc2ccc(Cl)cc2[nH]1)NC1CCCC1,11%
7,COCCCn1c(SCc2cccc(C(F)(F)F)c2)nc2cc(OC)c(OC)cc2c1=N,11.4%
8,Cc1nc2cc(NC(=O)N3CCN(c4ccccn4)CC3)ccc2o1,11.1%
9,Cc1nn(C(=O)c2cccs2)c(C)c1CN1C(=O)c2ccccc2C1=O,6.2%
10,O=C(NCc1ccccc1)c1c[nH]c2ccccc2c1=O,12.1%
11,O=C(NCCCN1CCOCC1)c1cccc(S(=O)(=O)N2CCOCC2)c1,11.1%
12,CCCCCn1c(=O)[nH]c2cc(C(=O)NCCN3C(C)CCCC3C)ccc2c1=O (stereo not shown),8.81%
13,CCN(CC)S(=O)(=O)c1cc(C(=O)Nc2ccncc2)ccc1Cl,-42.7%
14,Cc1ccc(NC(=O)C2CCN(C(=O)NC3CCCCC3)CC2)c(C)c1,5.28%
15,Cc1sc(NC(=O)/C=C/c2ccco2)c(C(=O)O)c1C,2.6%
16,Cc1ccc(Cl)cc1NC(=O)c1cc(NC(=O)C2CCCCC2C(=O)O)ccc1N1CCOCC1 (stereo not shown),0.405%
17,O=c1[nH]c(=O)n(Cc2ccco2)c(O)c1C=NCc1ccc2c(c1)OCO2,-8.18%
18,Cc1cc(C)c(NC(=O)CN2C(=O)NC3(CCOc4ccccc43)C2=O)c(C)c1 (stereo not shown),-0.449%
19,O=C1OC(CC(=O)N(Cc2nnc(-c3ccc(Cl)cc3)o2)C2CC2)c2ccccc21 (stereo not shown),-16%
20,CCC(C)c1ccc(NC(=S)N2CCN(c3ccccn3)CC2)cc1 (stereo not shown),7.7%
21,COc1cccc(-c2csc(N3CCN(C(=S)Nc4ccccc4OC)CC3)n2)c1,10.8%
22,CC1(C)CC(=O)/C(=C(/O)CCCN2C(=O)c3ccccc3C2=O)C(=NC(C)(C)C)C1,5.79%

row,SMILES,"hERG current change (%, negative = inhibition) at 1uM"
1,COCCn1c(-c2ccc(OC)cc2)cnc1N,-0.397%
2,Cc1nn(C(=O)c2cccc([N+](=O)[O-])c2)c(C)c1Cl,16.7%
3,O=c1oc2ccccc2c2c1C(c1ccc(Cl)cc1)Nc1ccc3ccccc3c1-2 (stereo not shown),14.4%
4,Cc1cccc(C#N)c1NC1=CC(=O)CC(C)(C)C1.Cl,1.89%
5,O=C(Cn1c(C(F)(F)F)nc2ccccc21)N=Nc1c(O)[nH]c2ccc(Br)cc12,13.3%
6,CCOC(=O)c1sc2ccccc2c1OC(=O)c1ccccc1,7.67%
7,CC(C)c1ccc(NC(=O)CCCN2C(=O)NC(C)(C)C2=O)cc1,16.1%
8,CCCCC1=CC2=CC(=O)C(C)(OC(=O)CC)C(=O)C2=CN1CCc1ccccn1 (stereo not shown),12.6%
9,COc1ccc(NC(=O)O/N=C/c2ccccc2Cl)cc1,15%
10,O=C(Nc1ccc(F)cc1F)c1cncc(Br)c1,9.97%
11,COC(=O)c1ccc(N2C(=O)CC(N3CCC(n4c(=O)[nH]c5ccccc54)CC3)C2=O)cc1 (stereo not shown),5.68%
12,COc1ccc(NC(=O)c2ccc(-c3ccccc3)cc2)cc1S(=O)(=O)N1CCOCC1,19.2%
13,CCCNC(=O)OCC12CC3CC(CC(C3)C1)C2,11.5%
14,COc1ccc(N2CCN(C(=S)Nc3ccc(C)cc3C)CC2)cc1,21.8%
15,CCC(C)(C)NC(=O)C(OC(=O)c1ccco1)c1ccccc1F (stereo not shown),14.5%
16,Cc1ccc(N=c2c([N+](=O)[O-])nn(-c3ccc4c(c3)OCCO4)n2O)c(Cl)c1,4.95%
17,CC(=O)c1ccc(NC(=O)CCc2nnc3ccc(N4CCC5(CC4)OCCO5)nn23)cc1,7.55%
18,Cc1ccc(OCc2ccccc2C)c([N+](=O)[O-])n1,10.5%
19,CCN(C(=O)COc1ccc(F)cc1Br)c1c(N)n(Cc2ccccc2)c(=O)[nH]c1=O,9.79%
20,COc1ccc(-c2cc(C(=O)Nc3ccc(C)c(C)c3)no2)cc1,20%
21,N/C(=N\OC(=O)c1ccc(Br)cc1)c1cccc([N+](=O)[O-])c1,21.9%
22,COc1cccc(OCCCCSc2ncccn2)c1,-1.25%
